Source: the supplement of paper PMC4466236
Whole data set: some 33,000 sequences, median “E-score (dimensionless, -0.5 to 0.5)” near -0.058, cut for the highest 2% near 0.35. The list shows a part of the results.

System: MvaT
Assay: PBM 8-mer E-score (mean of HK and ME arrays) (E-score (dimensionless, -0.5 to 0.5)); higher = stronger relative binding preference; most listed sequences are background and not binding sites
Outline: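 Full-length P. aeruginosa MvaT carrying an N-terminal glutathione S-transferase tag was tested by protein binding microarray following a previously described protocol. Two universal double-stranded 60-mer arrays, ME and HK, were used, each with a constant 25-mer primer region and a variable 35-mer region covering all 8-mers. The rank-based E-score is the mean of the two arrays, parsed with a custom script. Its range runs from -0.5 to 0.5 for each 8-mer.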

Row | Sequence | PBM 8-mer E-score
1 | AGGGGACT | -0.213
2 | GCAACTAA | 0.147
3 | CGTTTCGC | -0.0825
4 | TCCCTCGA | -0.07
5 | CGAACGCG | -0.0354
6 | CAAGAAGC | -0.16
7 | AGGCCTCA | -0.268
8 | AGTAAACA | 0.0963
9 | GTCGTCTA | -0.0717
10 | ATAGGGCG | -0.00817
11 | AGCGTTCG | -0.109
12 | ACAGGTGG | -0.204
13 | CGCCCACA | -0.198
14 | ATAAGCCA | 0.0651
15 | CTATTGAC | 0.0407
16 | CGTAAGAA | -0.0208
17 | AAGGTAGC | -0.06
18 | CCTGCACG | -0.224
19 | ATGCTACA | 0.0189
20 | AGTATAGC | -0.0476
21 | GATAATCC | 0.175
22 | AGAGCTGC | -0.163

Row | Sequence | PBM 8-mer E-score
23 | AACCAAGC | -0.124
24 | ATGCGTGA | -0.0665
25 | ATGCTGTC | -0.105
26 | GCTCACGA | -0.171
27 | GATTGTCC | -0.0667
28 | CCGCCGGA | -0.104
29 | CTATGGTA | 0.0829
30 | ACAATATC | 0.258
31 | CGGTCGGA | -0.368
32 | ACAGTTAC | 0.236
33 | AACCACGC | -0.0918
34 | CGCGTACA | -0.101
35 | AGTGCGTC | -0.0339
36 | GACCATAA | -0.0261
37 | CGTAGACC | -0.261
38 | TAAAGGAA | 0.0516
39 | ATGTGCCC | -0.103
40 | CCTGAGTC | -0.0974
41 | GAGAACGC | -0.107
42 | CCGCATAG | -0.0568
43 | GCTTAAAC | 0.121
44 | CTCGCCAA | -0.145

Row | Sequence | PBM 8-mer E-score
45 | ACCATGTA | 0.111
46 | ATTTGGTG | 0.146
47 | ATTCCGTA | 0.129
48 | ATCACCGG | -0.204
49 | GTAATGAA | 0.00633
50 | AAACCATT | 0.123
51 | AGGAGCAG | -0.32
52 | CATTACTC | 0.108
53 | TCCCCTCA | -0.358
54 | GGAGAAGA | -0.196
55 | AAGTCCCT | -0.0831
56 | GCGTTTAC | -0.149
57 | CGCCGTAA | -0.155
58 | CTTTGCTA | 0.169
59 | ACCATATG | 0.281
60 | TAGCCCCA | -0.121
61 | CAGAAGAC | 0.0523
62 | CGCGTGCC | -0.256
63 | AGGTCCAG | -0.177
64 | AAACTCGA | 0.097
65 | CTGCTCGA | -0.203
66 | CCCCCTCC | -0.39

Row | Sequence | PBM 8-mer E-score
67 | GTGAGGCA | -0.207
68 | CTAAGGAA | -0.0352
69 | ACACATGG | -0.0786
70 | AATGTCGG | 0.128
71 | ACTCGATA | 0.0712
72 | CATCGAAA | 0.0174
73 | TATCATCA | 0.112
74 | AATACGCG | 0.202
75 | CCCCTATA | -0.0385
76 | AATGACCC | -0.126
77 | ATATTGGG | 0.172
78 | CCAAAGCG | -0.169
79 | CATGTCAA | 0.0801
80 | AGTTAACT | 0.377
81 | GAATCAGC | -0.166
82 | CAGGCCAA | -0.233
83 | AGAGCGCG | -0.146
84 | ATCTCAAC | -0.0313
85 | ACAGGGTG | -0.121
86 | CCCTATTA | 0.186
87 | ACGAGTCT | -0.152
88 | CTGGCAGA | -0.238

Row | Sequence | PBM 8-mer E-score
89 | CACCAATC | 0.0155
90 | CACGTTAG | -0.171
91 | CTACGTCA | -0.159
92 | ATCACGGA | -0.132
93 | GTCAACTA | 0.19
94 | ACAGCGGT | -0.17
95 | GGCGTTAA | 0.0645
96 | CCGTGTCG | -0.298
97 | ACAGAGCC | -0.222
98 | ACTCGCGA | 0.0409
99 | GACGCGCC | -0.316
100 | AGCAGCAG | -0.173
101 | CGACCACA | -0.161
102 | CGCCGAAG | -0.252
103 | ACCACTGG | -0.167
104 | GCCCAGGC | -0.322
105 | ACTGCAAT | 0.121
106 | ACAATTCC | 0.137
107 | ACAACGAA | 0.0473
108 | CGTTGGGA | -0.154
109 | TGAATAAA | 0.268
110 | GACAGTAA | 0.193
